{"source": "PubChem BioAssay AID686979", "about": "(National Center for Advancing Translational Sciences (NCATS), 2013)", "note": "About 50,000 (12%) of roughly 420,000 compounds were called active. The shares of active, inactive and inconclusive entries below differ from those in the screen. Calls come from the whole dose curve; as a rule, active = well fitted inhibition curve with a large enough effect; inconclusive = small, poorly fitted or top-dose-only effect; inactive = flat fitted curve, though single readings scatter. No potency is given beside an inconclusive call; the fits are too rough. % is set by controls: 0 for no effect and ±100 for the full control effect; potency is the fitted concentration of half-maximal effect; tags give direction and shape of the fitted curve.", "data": [{"test": "qHTS for Inhibitors of human tyrosyl-DNA phosphodiesterase 1 (TDP1): qHTS in cells in presence of CPT; note: nearly all actives have a fitted effect of over 55% in size", "details": "chicken DT40 Tdp1-/-;hTDP1 cells + 20 nM CPT, ATP luminescence, 48 h; activity change, negative = growth inhibition: at 46.2 µM (top of the series) unless noted", "method_in_brief": "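Chicken DT40 Tdp1-/- cells stably complemented with human TDP1 were seeded at 400 cells/well in medium containing 20 nM camptothecin, exposed to pin-transferred compounds, and grown at 37 °C for at least 48 hr. Viability was read as ATP luminescence.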", "values": [{"smiles": "Cc1nc2ccccc2c(=O)n1NC(=O)/C=C/c1ccccc1Cl", "Potency": "inconclusive [inhibitor, single point]"}, {"smiles": "COc1ccc(-c2nc(Cn3c(=O)cc(C)c4c(C)nn(-c5ccccc5)c43)c(C)o2)c(OC)c1", "Potency": "inconclusive [inhibitor, single point]"}, {"smiles": "O=c1cnc2ccccc2n1CC1CCCCC1", "Potency": "inconclusive [inhibitor, single point]"}, {"smiles": "O=C(c1ccccc1)c1ccccc1N1C(=O)C=CC1=O", "Potency": "active: 0.731 µM"}, {"smiles": "O=C(c1ccc(Br)cc1)N(c1ccccn1)C1CCCCC1", "Potency": "inconclusive [inhibitor, single point]"}, {"smiles": "CN(C)c1ccc(CNC(=O)Cn2ccc3cc(S(=O)(=O)N4CCCCCC4)ccc32)cc1", "Potency": "inconclusive [inhibitor, partial curve]"}, {"smiles": "CC1(C)Cc2ccccc2-c2nnc(SCC(=O)N3CCN(c4ccccc4)CC3)n21", "Potency": "inconclusive [inhibitor, single point]"}, {"smiles": "COc1ccc(/C=N/Nc2nc3ccccc3c(=O)n2-c2ccccc2)cc1OC", "Potency": "inconclusive [inhibitor, single point]"}, {"smiles": "O=C(COc1ncnc2cc([N+](=O)[O-])ccc12)NCc1ccc2c(c1)OCO2", "Potency": "inactive"}, {"smiles": "O=C(CN1C(=O)C2CCCCC2C1=O)Nc1nc(-c2ccccn2)cs1", "note": "(stereo not drawn)", "Potency": "active: 11.6 µM"}, {"smiles": "Cc1ccc(NC(=O)c2cc([N+](=O)[O-])ccc2N2CCOCC2)cc1S(=O)(=O)N(C)C", "Potency": "inactive"}, {"smiles": "CCC1CN(C(=O)N2CCC(C(=O)NCCC3=CCCCC3)CC2)c2cc(C)ccc2O1", "note": "(stereo not drawn)", "Potency": "active: 14.6 µM"}, {"smiles": "O=C(NC(=S)Nc1nc2c(s1)CCCC2)c1ccccc1", "Potency": "inconclusive [inhibitor, single point]"}, {"smiles": "Cc1cccc(OCC(=O)Nc2ccc(-c3nc4cc(C)ccc4o3)c(O)c2)c1", "Potency": "active: 14.6 µM"}, {"smiles": "Cc1csc(-c2nc3ccccc3n2C(C)c2nc3ccccc3[nH]2)c1", "note": "(stereo not drawn)", "Potency": "inconclusive [inhibitor, single point]"}, {"smiles": "Cc1nnc(SCCCOc2ccccc2)nc1C", "Potency": "inactive"}, {"smiles": "Cc1nc(C(=O)Nc2ccc(F)cc2)nn1-c1ccc([N+](=O)[O-])cc1", "Potency": "inactive"}, {"smiles": "COC(=O)NCC(c1ccc2c(c1)OCO2)N1CCN(c2ccccc2)CC1", "note": "(stereo not drawn)", "Potency": "inconclusive [inhibitor, partial curve]"}, {"smiles": "O=C(Nc1ccc2nc(C3CC3)n(Cc3ccc(F)cc3)c(=O)c2c1)c1ccco1", "Potency": "active: 20 µM"}, {"smiles": "Cc1ccc(OCC(=O)Nc2ccc(Cl)c(-c3nc4ccccc4[nH]3)c2)cc1C", "Potency": "inconclusive [inhibitor, single point]"}, {"smiles": "O=c1c(-c2ccc(F)cc2)nc2cnc(Oc3cccc(Cl)c3)nc2n1C[C@H]1CCCO1", "Potency": "inconclusive [inhibitor, single point]"}, {"smiles": "COc1ccc(S(=O)(=O)N(CC(=O)N(C)Cc2ccccc2)c2ccc(Cl)cc2)cc1", "Potency": "inconclusive [inhibitor, single point]"}, {"smiles": "COc1cc2c(cc1OC)CN(C(=O)CCC(=O)c1ccc(F)cc1)CC2", "Potency": "active: 18.4 µM"}, {"smiles": "CCn1cc2nc(SCc3ccc(C)cc3)n(CCc3ccccc3)c(=O)c2n1", "Potency": "inconclusive [inhibitor, single point]"}, {"smiles": "O=C1C=C(Nc2cccnc2)c2ccccc2C1=O", "Potency": "active: 7.31 µM"}, {"smiles": "O=C(C(=O)N1CCN(C/C=C/c2ccccc2)CC1)c1ccccc1", "activity change, negative = growth inhibition": "inconclusive: -34.3% [inhibitor]"}, {"smiles": "COCCOc1cnn(-c2cc(Oc3ccc(C)cc3)ncn2)c(=O)c1Cl", "Potency": "inactive"}, {"smiles": "O=S(=O)(Nc1ccc(S(=O)(=O)N2CCCC2)cc1)c1ccc(F)cc1F", "Potency": "inactive"}, {"smiles": "CC(=O)N1N=C(c2cccc(O)c2)CC1c1cccs1", "note": "(stereo not drawn)", "Potency": "active: 14.6 µM"}, {"smiles": "O=C(COc1ccc2ccc(=O)oc2c1)NCCCn1ccnc1", "Potency": "inactive"}, {"smiles": "O=C(O)CC(c1ccccc1)c1ccc2c(c1)OCO2", "note": "(stereo not drawn)", "Potency": "inactive"}, {"smiles": "C[C@H](CO)N1C[C@H](C)[C@@H](CN(C)S(=O)(=O)c2ccccc2)Oc2ccc(NC(=O)Cc3ccccc3)cc2C1=O", "Potency": "inconclusive [inhibitor, single point]"}, {"smiles": "Cc1ccc(/C=C/C(=O)OC(C)C(=O)Nc2ccc(Cl)cn2)o1", "note": "(stereo not drawn)", "Potency": "active: 13 µM"}, {"smiles": "COc1cc(/C=C/c2ccc3cccc([N+](=O)[O-])c3n2)ccc1OCC#N", "Potency": "active: 5.8 µM"}, {"smiles": "CC1(Cc2ccccc2OC(F)(F)F)C(=O)Nc2ccc(-c3ccsc3)cc21", "note": "(stereo not drawn)", "Potency": "inconclusive [inhibitor, single point]"}, {"smiles": "CC1Cc2ccccc2N1C(=O)CSc1nc2cc3c(cc2cc1C#N)OCO3", "note": "(stereo not drawn)", "Potency": "inconclusive [inhibitor, partial curve]"}, {"smiles": "CC(C)c1ccc(NC(=O)COc2ccc(F)cc2C(=O)c2cnn(-c3ccccc3)c2)cc1", "Potency": "inconclusive [inhibitor, single point]"}, {"smiles": "Nc1nnnn1/N=C/c1ccccc1C(F)(F)F", "Potency": "active: 11.6 µM"}, {"smiles": "CCCc1c(C)c2cccc(C)c2[nH]c1=O", "activity change, negative = growth inhibition": "inconclusive: -30.9% [inhibitor]"}, {"smiles": "C=CCNc1ccc(C(=O)O)cc1", "Potency": "inactive"}, {"smiles": "CN1CCc2c(sc(NC(=O)c3cc(Cl)sc3Cl)c2C(N)=O)C1", "Potency": "inconclusive [inhibitor, single point]"}, {"smiles": "COc1ccc(NC(=O)CSc2nnc(NC(=O)Nc3ccccc3)s2)c(OC)c1", "Potency": "inactive"}, {"smiles": "COc1cc(C)c(NC(=O)c2cc(C3CC3)nc3c2cnn3C(C)C)cc1OC", "Potency": "inconclusive [inhibitor, single point]"}, {"smiles": "Cc1n[nH]c(C)c1N1C(=O)c2cccc3c(Br)ccc(c23)C1=O", "Potency": "inconclusive [inhibitor, single point]"}, {"smiles": "O=C1NC(c2ccc3ccccc3c2)Nc2ccccc21", "note": "(stereo not drawn)", "Potency": "active: 16.4 µM"}, {"smiles": "CCOC(=O)c1ccc(NC(=O)c2c(NCc3sccc3C)sc3c2CCCCC3)cc1", "Potency": "active: 11.6 µM"}, {"smiles": "O=C(NC1CCCCC1)c1c[nH]c2ccc(S(=O)(=O)Nc3ccccc3F)cc2c1=O", "Potency": "inactive"}, {"smiles": "COc1ccc(C(=O)Nc2nc3ccccc3[nH]2)cc1", "Potency": "active: 16.4 µM"}]}]}
